PMC4336329 (PLoS ONE, 2015)
In all, about 310,000 compounds went through this assay and about 14,000 (4.5%) showed an effect of 50% or more. The effect is printed as a negative number. The list shows a part of the results.
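Further: peak tail current of the secondary pulse compared with the same well before compound.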

These molecules were tested against human ether-à-go-go-related gene (hERG) potassium channel (human, UniProt Q12809) (assay: primary screen, population patch clamp on CHO cells stably expressing hERG).
human ether-à-go-go-related gene (hERG) potassium channel, sequence (Q12809 whole entry, looked up): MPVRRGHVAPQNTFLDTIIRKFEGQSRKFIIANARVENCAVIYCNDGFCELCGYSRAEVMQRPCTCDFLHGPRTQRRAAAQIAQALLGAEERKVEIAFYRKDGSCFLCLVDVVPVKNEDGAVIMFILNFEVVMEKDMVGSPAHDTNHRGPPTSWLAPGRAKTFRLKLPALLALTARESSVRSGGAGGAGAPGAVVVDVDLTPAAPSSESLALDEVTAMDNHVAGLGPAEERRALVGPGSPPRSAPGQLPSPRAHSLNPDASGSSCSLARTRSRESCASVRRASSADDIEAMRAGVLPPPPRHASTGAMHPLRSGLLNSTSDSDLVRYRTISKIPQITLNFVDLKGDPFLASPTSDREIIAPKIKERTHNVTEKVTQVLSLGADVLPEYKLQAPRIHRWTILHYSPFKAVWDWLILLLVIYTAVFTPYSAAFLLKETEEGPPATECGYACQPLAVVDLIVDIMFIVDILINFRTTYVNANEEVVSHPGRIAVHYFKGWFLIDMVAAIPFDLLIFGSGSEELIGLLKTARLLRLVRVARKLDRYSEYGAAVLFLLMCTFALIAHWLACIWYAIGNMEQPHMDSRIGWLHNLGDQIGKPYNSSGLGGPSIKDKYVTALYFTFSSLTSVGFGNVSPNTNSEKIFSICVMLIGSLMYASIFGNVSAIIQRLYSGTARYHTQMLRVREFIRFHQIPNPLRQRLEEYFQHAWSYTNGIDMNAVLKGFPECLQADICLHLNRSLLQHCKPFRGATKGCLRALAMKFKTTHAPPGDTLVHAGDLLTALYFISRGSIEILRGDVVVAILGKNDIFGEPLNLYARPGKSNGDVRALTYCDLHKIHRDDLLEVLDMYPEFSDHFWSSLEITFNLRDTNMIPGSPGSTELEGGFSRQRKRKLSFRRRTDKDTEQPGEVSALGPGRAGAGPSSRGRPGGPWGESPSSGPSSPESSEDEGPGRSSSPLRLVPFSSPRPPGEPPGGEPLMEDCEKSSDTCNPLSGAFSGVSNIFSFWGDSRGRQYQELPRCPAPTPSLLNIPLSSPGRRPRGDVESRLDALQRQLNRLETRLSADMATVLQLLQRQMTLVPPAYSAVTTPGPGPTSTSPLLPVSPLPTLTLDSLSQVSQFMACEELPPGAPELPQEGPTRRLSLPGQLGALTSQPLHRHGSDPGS
With `Cc1cc(NC(=O)CSc2nccn2-c2cccc(C)c2C)no1` the “hERG current change (%, negative = inhibition) at 10uM” value was 0.368%.
For `O=C(O)/C=C/c1ccc2c(-c3ccccc3)onc2c1`, the “hERG current change (%, negative = inhibition) at 10uM” value was 8.05%.
In the case of `Nc1ccc([As](=O)(O)O)cc1`, the “hERG current change (%, negative = inhibition) at 10uM” value is reported as -0.804%.
`CCOC(=O)N1CCN(C(=O)CN2C(=O)COc3ccc(S(=O)(=O)N4CCOCC4)cc32)CC1` was tested, and the “hERG current change (%, negative = inhibition) at 10uM” value was 15.1%.
For `COC(=O)Cc1nnc(NC(=O)C(C)C)s1`, the “hERG current change (%, negative = inhibition) at 10uM” value was 8.98%.
In the case of `COC(=O)C1=C(COc2ccc(C=O)cc2OC)NC(=O)NC1c1cc(C)ccc1C` (centres unmarked), the “hERG current change (%, negative = inhibition) at 10uM” value is reported as 6.02%.
For `NC(=O)c1ccccc1NC(=O)CSC1=NCCS1`, the “hERG current change (%, negative = inhibition) at 10uM” value was 16.1%.
In the case of `COC(Cc1n[nH]c(=S)n1-c1ccc(Cl)cc1)OC`, the “hERG current change (%, negative = inhibition) at 10uM” value is reported as 8.38%.
In the case of `CC(Nc1nc(-c2cccnc2)nc2ccccc12)c1ccc(F)cc1` (centres unmarked), the “hERG current change (%, negative = inhibition) at 10uM” value is reported as -27.8%.
In the case of `CCOc1ccc(NC(=O)C(c2ccccn2)N(C(=O)CCl)c2ccc(OCC)cc2)cc1` (centres unmarked), the “hERG current change (%, negative = inhibition) at 10uM” value is reported as -17.3%.
In the case of `Cc1cc2c(cc1S(=O)(=O)N(C)Cc1ccccc1)n(C)c(=O)c(=O)n2C`, the “hERG current change (%, negative = inhibition) at 10uM” value is reported as -42.7%.
In the case of `O=C(CN1CCCCC1)N/N=C/c1ccc(Cl)cc1Cl`, the “hERG current change (%, negative = inhibition) at 10uM” value is reported as -39.1%.
In the case of `Cc1cc(C)nc(N(C#N)CC(=O)Nc2ccccc2)n1`, the “hERG current change (%, negative = inhibition) at 10uM” value is reported as 7.2%.
In the case of `COc1ccccc1C(=O)NCC(C)(C)CN=C1NS(=O)(=O)c2ccccc21`, the “hERG current change (%, negative = inhibition) at 10uM” value is reported as -23.3%.
For `Cc1nc2sccn2c(=O)c1S(=O)(=O)N1CCN(c2ccc(F)cc2)CC1`, the “hERG current change (%, negative = inhibition) at 10uM” value was -70.2%.
In the case of `O=C(CC(C(=O)N1CCc2ccccc21)n1ccnc1)NCc1ccccc1` (centres unmarked), the “hERG current change (%, negative = inhibition) at 10uM” value is reported as -26.5%.
In the case of `O=C(CSc1nnc(-c2ccco2)o1)c1ccccc1Cl`, the “hERG current change (%, negative = inhibition) at 10uM” value is reported as -4.07%.
For `CC(C)=CCCC1(C)C=Cc2c(ccc3c2[nH]c2cc(O)c(C)cc23)O1` (centres unmarked), the “hERG current change (%, negative = inhibition) at 10uM” value was 5.43%.
`Cc1c(N2C(=O)/C(=C/c3ccccc3)SC2=S)c(=O)n(-c2ccccc2)n1C` was tested, and the “hERG current change (%, negative = inhibition) at 10uM” value was -25.9%.
For `Cc1ccnc(NC(=S)NC(=O)c2cccs2)c1`, the “hERG current change (%, negative = inhibition) at 10uM” value was 9.29%.
For `CC(OCCN(C)C)C(=O)C12CC3CC(CC(C3)C1)C2.Cl` (centres unmarked), the “hERG current change (%, negative = inhibition) at 10uM” value was 6.59%.
With `CCOC(=O)COc1cc(OCC(=O)OCC)c2c(=O)cc(-c3ccccc3)oc2c1` the “hERG current change (%, negative = inhibition) at 10uM” value was -62.6%.
For `O=C(CN(c1ccc(F)cc1)S(=O)(=O)c1ccccc1)N1CCOCC1`, the “hERG current change (%, negative = inhibition) at 10uM” value was 2.48%.
`O=C(CSc1nnc(-c2cccs2)o1)Nc1cccc(S(=O)(=O)N2CCCCC2)c1` was tested, and the “hERG current change (%, negative = inhibition) at 10uM” value was 5.19%.
In the case of `Cc1cc(-c2nnc(SCC(=O)Nc3ccc(Br)cc3F)n2N)n[nH]1`, the “hERG current change (%, negative = inhibition) at 10uM” value is reported as 1.3%.
In the case of `CC(=O)c1ccc(Oc2ncnc3sccc23)c(CN2CCOCC2)c1`, the “hERG current change (%, negative = inhibition) at 10uM” value is reported as 9.09%.
With `CCC1(c2cccc(O)c2)CCCCN(C)C1.Cl` (centres unmarked) the “hERG current change (%, negative = inhibition) at 10uM” value was -18.3%.
For `COc1cccc(/C=N/NC(=O)CCCC(=O)NC2CCCCC2)c1`, the “hERG current change (%, negative = inhibition) at 10uM” value was -10.8%.
With `C=CCNC(=O)Nc1ccc(F)cc1F` the “hERG current change (%, negative = inhibition) at 10uM” value was 4.39%.
With `Cn1cc(/C=C/c2cc[n+](C)cc2)c2cc(F)ccc21.[I-]` the “hERG current change (%, negative = inhibition) at 10uM” value was -12.8%.
For `CCOC(=O)c1c(C)[nH]c(C(=O)OCc2ccc(C)cc2)c1C`, the “hERG current change (%, negative = inhibition) at 10uM” value was 13%.
With `CC(C)[C@H](NC(N)=O)C(=O)NCCc1ccc(Cl)cc1` the “hERG current change (%, negative = inhibition) at 10uM” value was 3.09%.
`CC1=C(C(=O)OCc2ccc(C)cc2)C(c2ccc(O)c([N+](=O)[O-])c2)NC(=O)N1` (centres unmarked) was tested, and the “hERG current change (%, negative = inhibition) at 10uM” value was 4.03%.
With `O=C(Nc1ccc(Cl)cc1)Nc1ccccc1CC[N+](=O)[O-]` the “hERG current change (%, negative = inhibition) at 10uM” value was 7.79%.
For `O=C(Nc1nc2ccc(Br)cc2s1)c1ccco1`, the “hERG current change (%, negative = inhibition) at 10uM” value was 19%.
With `COc1ccc(NC(=O)C(Cc2ccccc2)n2cccc2)cc1` (centres unmarked) the “hERG current change (%, negative = inhibition) at 10uM” value was -14.1%.
In the case of `CCc1ccccc1NS(=O)(=O)c1cc2c(cc1C)n(C)c(=O)c(=O)n2C`, the “hERG current change (%, negative = inhibition) at 10uM” value is reported as -26.3%.
In the case of `CC(=O)NN1C(=O)c2ccccc2NC1c1cccc([N+](=O)[O-])c1` (centres unmarked), the “hERG current change (%, negative = inhibition) at 10uM” value is reported as 11.3%.
For `COc1cc(/C=C(\NC(=O)c2ccccc2)C(=O)Nc2cccc(O)c2)c([N+](=O)[O-])cc1OC`, the “hERG current change (%, negative = inhibition) at 10uM” value was -4.98%.
In the case of `CC(C)Oc1ccc(CNC(=O)c2ccc3c(c2)N(C)CCS3)cc1`, the “hERG current change (%, negative = inhibition) at 10uM” value is reported as -8.67%.
In the case of `Cn1nc(C(F)(F)F)c(-c2ccc(Br)cc2)c1NC(=O)CSCC(=O)O`, the “hERG current change (%, negative = inhibition) at 10uM” value is reported as -18.6%.
In the case of `O=C(Nc1ccccc1)Nc1nnc(Cc2ccc([N+](=O)[O-])cc2)s1`, the “hERG current change (%, negative = inhibition) at 10uM” value is reported as -7.66%.
In the case of `CN(CC(=O)Nc1ccc(F)c(F)c1F)C(=O)CCc1nc2sc3c(c2c(=O)[nH]1)CCCC3`, the “hERG current change (%, negative = inhibition) at 10uM” value is reported as -8.01%.
With `CCn1cc(CN2CCN(Cc3ccc(OC)c(C)c3C)C(CCO)C2)c(C)n1` (centres unmarked) the “hERG current change (%, negative = inhibition) at 10uM” value was -23.1%.
For `CC(C)c1ccc(NC2CCCN(C(=O)c3n[nH]c4c3CCC4)C2)cc1` (centres unmarked), the “hERG current change (%, negative = inhibition) at 10uM” value was 5.38%.
For `Oc1ccc(Br)cc1CN1CCN(c2ccccc2)CC1`, the “hERG current change (%, negative = inhibition) at 10uM” value was 25.3%.
In the case of `COc1ccc(C2c3ccc4ccccc4c3Oc3ncn4nc(Cc5ccccc5)nc4c32)cc1OC` (centres unmarked), the “hERG current change (%, negative = inhibition) at 10uM” value is reported as 13.2%.
For `O=C(Nc1ccc(F)cc1)c1ccc2c(=O)n(CC3CCCO3)c(=S)[nH]c2c1` (centres unmarked), the “hERG current change (%, negative = inhibition) at 10uM” value was 21.6%.
With `COc1ccc(Cc2nnn(CC(=O)O)n2)cc1` the “hERG current change (%, negative = inhibition) at 10uM” value was 5.94%.
For `O=C(NCCNC(=O)c1cc(OCC(F)(F)F)ccc1OCC(F)(F)F)Nc1ccc(OC(F)(F)F)cc1`, the “hERG current change (%, negative = inhibition) at 10uM” value was -6.34%.
For `CN(C)S(=O)(=O)c1cccc(C(=O)NCC2(N3CCOCC3)CCCCC2)c1`, the “hERG current change (%, negative = inhibition) at 10uM” value was -13.4%.
With `Cc1nc2ccccc2c2oc(C(=O)NC3CC3)cc12` the “hERG current change (%, negative = inhibition) at 10uM” value was 1.88%.
In the case of `O=C(NCC1CC1)Nc1ccc(Cl)cc1`, the “hERG current change (%, negative = inhibition) at 10uM” value is reported as 17.7%.
For `Cc1cccc(NC(=O)c2cc(-c3ccco3)nc3ccccc23)n1`, the “hERG current change (%, negative = inhibition) at 10uM” value was 4.05%.
`CC(=O)c1cccc(NC(=O)CN(C)S(=O)(=O)c2cccc3nsnc23)c1` was tested, and the “hERG current change (%, negative = inhibition) at 10uM” value was -31.9%.
For `O=C(CN1C(=O)COc2ccccc21)N(Cc1ccc2c(c1)OCO2)CC1CCCO1` (centres unmarked), the “hERG current change (%, negative = inhibition) at 10uM” value was -17.2%.
